# This is one part of the list.
# Experiments:
# Assay in all cases: glycan array binding signal (z-score within array); higher = stronger binding
# Details in all cases: glycan notation: IUPAC condensed, linker removed
# [1] = biological target: Gal(b1-4)GlcNAc(b1-2)Man(a1-6)[Man(a1-3)]Man(b1-4)GlcNAc(b1-4)GlcNAc
# In short: (§1)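 Glycan array binding is given as a within-array Z-score, which can be read as non-binding when negative. The arrays, 3228 of them, came from the Consortium for Functional Glycomics database and were retained only where the protein sequence was available. Z-scores were averaged across arrays of the same protein sequence at different concentrations or buffers and across linkers.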
# [2] = biological target: Gal(b1-4)GlcNAc(b1-2)[Gal(b1-4)GlcNAc(b1-4)]Man(a1-3)[Gal(b1-4)GlcNAc(b1-2)Man(a1-6)]Man(b1-4)GlcNAc(b1-4)GlcNAc
# In short: as §1
# [3] = biological target: Gal(b1-4)GlcNAc(b1-2)[Gal(b1-4)GlcNAc(b1-4)]Man(a1-3)[Gal(b1-4)GlcNAc(b1-2)[Gal(b1-4)GlcNAc(b1-6)]Man(a1-6)]Man(b1-4)GlcNAc(b1-4)GlcNAc
# In short: as §1
# [4] = biological target: Gal(b1-4)GlcNAc(b1-2)[Gal(b1-4)GlcNAc(b1-4)]Man(a1-3)[GlcNAc(b1-4)][Gal(b1-4)GlcNAc(b1-2)Man(a1-6)]Man(b1-4)GlcNAc(b1-4)GlcNAc
# In short: as §1
# [5] = biological target: Gal(b1-4)GlcNAc(b1-2)[Gal(b1-4)GlcNAc(b1-4)]Man(a1-3)[GlcNAc(b1-4)][Gal(b1-4)GlcNAc(b1-2)[Gal(b1-4)GlcNAc(b1-6)]Man(a1-6)]Man(b1-4)GlcNAc(b1-4)GlcNAc
# In short: as §1
# [6] = biological target: Gal(b1-4)GlcNAc(b1-2)[Gal(b1-4)GlcNAc(b1-6)]Man(a1-6)[Gal(b1-4)GlcNAc(b1-2)Man(a1-3)]Man(b1-4)GlcNAc(b1-4)GlcNAc
# In short: as §1
# [7] = biological target: Gal(b1-4)GlcNAc(b1-2)[Gal(b1-4)GlcNAc(b1-6)]Man(a1-6)[Gal(b1-4)GlcNAc(b1-2)Man(a1-3)]Man(b1-4)GlcNAc(b1-4)[Fuc(a1-6)]GlcNAc
# In short: as §1
# [8] = biological target: Gal(b1-4)GlcNAc(b1-2)[Gal(b1-4)GlcNAc(b1-6)]Man(a1-6)[GlcNAc(b1-4)][Gal(b1-4)GlcNAc(b1-2)Man(a1-3)]Man(b1-4)GlcNAc(b1-4)GlcNAc
# In short: as §1
# [9] = biological target: Gal(b1-4)GlcNAc(b1-2)[Gal(b1-4)GlcNAc(b1-6)]Man(a1-6)[GlcNAc(b1-4)][Gal(b1-4)GlcNAc(b1-2)[Gal(b1-4)GlcNAc(b1-4)]Man(a1-3)]Man(b1-4)GlcNAc(b1-4)[Fuc(a1-6)]GlcNAc
# In short: as §1
# [10] = biological target: Gal(b1-4)GlcNAc(b1-3)Gal(b1-3)GalNAc
# In short: as §1
# [11] = biological target: Gal(b1-4)GlcNAc(b1-3)Gal(b1-3)GlcNAc
# In short: as §1
# [12] = biological target: Gal(b1-4)GlcNAc(b1-3)Gal(b1-4)Glc
# In short: as §1
# [13] = biological target: Gal(b1-4)GlcNAc(b1-3)Gal(b1-4)GlcNAc
# In short: as §1
# [14] = biological target: Gal(b1-4)GlcNAc(b1-3)Gal(b1-4)GlcNAc(b1-2)Man(a1-3)[Gal(b1-4)GlcNAc(b1-3)Gal(b1-4)GlcNAc(b1-2)Man(a1-6)]Man(b1-4)GlcNAc(b1-4)GlcNAc
# In short: as §1
# [15] = biological target: Gal(b1-4)GlcNAc(b1-3)Gal(b1-4)GlcNAc(b1-2)Man(a1-3)[Gal(b1-4)GlcNAc(b1-3)Gal(b1-4)GlcNAc(b1-2)Man(a1-6)]Man(b1-4)GlcNAc(b1-4)[Fuc(a1-6)]GlcNAc
# In short: as §1
# [16] = biological target: Gal(b1-4)GlcNAc(b1-3)Gal(b1-4)GlcNAc(b1-2)[Gal(b1-4)GlcNAc(b1-3)Gal(b1-4)GlcNAc(b1-6)]Man(a1-6)[Gal(b1-4)GlcNAc(b1-3)Gal(b1-4)GlcNAc(b1-2)Man(a1-3)]Man(b1-4)GlcNAc(b1-4)GlcNAc
# In short: as §1
# [17] = biological target: Gal(b1-4)GlcNAc(b1-3)Gal(b1-4)GlcNAc(b1-2)[Gal(b1-4)GlcNAc(b1-3)Gal(b1-4)GlcNAc(b1-6)]Man(a1-6)[Gal(b1-4)GlcNAc(b1-3)Gal(b1-4)GlcNAc(b1-2)Man(a1-3)]Man(b1-4)GlcNAc(b1-4)[Fuc(a1-6)]GlcNAc
# In short: as §1
# [18] = biological target: Gal(b1-4)GlcNAc(b1-3)Gal(b1-4)GlcNAc(b1-3)Gal(b1-4)GlcNAc
# In short: as §1
# [19] = biological target: Gal(b1-4)GlcNAc(b1-3)Gal(b1-4)GlcNAc(b1-3)Gal(b1-4)GlcNAc(b1-2)Man(a1-3)[Gal(b1-4)GlcNAc(b1-3)Gal(b1-4)GlcNAc(b1-3)Gal(b1-4)GlcNAc(b1-2)Man(a1-6)]Man(b1-4)GlcNAc(b1-4)GlcNAc
# In short: as §1
# [20] = biological target: Gal(b1-4)GlcNAc(b1-3)Gal(b1-4)GlcNAc(b1-3)Gal(b1-4)GlcNAc(b1-2)Man(a1-3)[Gal(b1-4)GlcNAc(b1-3)Gal(b1-4)GlcNAc(b1-3)Gal(b1-4)GlcNAc(b1-2)Man(a1-6)]Man(b1-4)GlcNAc(b1-4)[Fuc(a1-6)]GlcNAc
# In short: as §1
# [21] = biological target: Gal(b1-4)GlcNAc(b1-3)Gal(b1-4)GlcNAc(b1-3)Gal(b1-4)GlcNAc(b1-2)[Gal(b1-4)GlcNAc(b1-3)Gal(b1-4)GlcNAc(b1-3)Gal(b1-4)GlcNAc(b1-6)]Man(a1-6)[Gal(b1-4)GlcNAc(b1-3)Gal(b1-4)GlcNAc(b1-3)Gal(b1-4)GlcNAc(b1-2)Man(a1-3)]Man(b1-4)GlcNAc(b1-4)[Fuc(a1-6)]GlcNAc
# In short: as §1
# [22] = biological target: Gal(b1-4)GlcNAc(b1-3)Gal(b1-4)GlcNAc(b1-3)Gal(b1-4)GlcNAc(b1-3)Gal(b1-4)GlcNAc(b1-2)Man(a1-3)[Gal(b1-4)GlcNAc(b1-3)Gal(b1-4)GlcNAc(b1-3)Gal(b1-4)GlcNAc(b1-3)Gal(b1-4)GlcNAc(b1-2)Man(a1-6)]Man(b1-4)GlcNAc(b1-4)GlcNAc
# In short: as §1
binder,measurement,setting,value
"HPAIIITrx (Helix pomatia), Q1KM18 (protein) MLFVTIISLGLLAIVHGQCALKTIAFSAAIDREQTFDANQVVIYDIVITNHGNAYDNSTGLFTAPVDGMYSFQLNLLTIKEKEGWLELVHNGQLKVSVYAKQDSTYDSSSNSVIIKMKEGDRVNVRAHKKSGLFGRDDELYNTFSGHFLSGL",glycan array binding signal (z-score),[1],-0.027
same,glycan array binding signal (z-score),[2],-0.238
same,glycan array binding signal (z-score),[3],-0.365
same,glycan array binding signal (z-score),[4],-0.303
same,glycan array binding signal (z-score),[5],-0.201
same,glycan array binding signal (z-score),[6],-0.212
same,glycan array binding signal (z-score),[7],-0.389
same,glycan array binding signal (z-score),[8],-0.228
same,glycan array binding signal (z-score),[9],-0.416
same,glycan array binding signal (z-score),[10],-0.299
same,glycan array binding signal (z-score),[11],-0.382
same,glycan array binding signal (z-score),[12],-0.207
same,glycan array binding signal (z-score),[13],-0.39
same,glycan array binding signal (z-score),[14],1.41
same,glycan array binding signal (z-score),[15],-0.221
same,glycan array binding signal (z-score),[16],0.804
same,glycan array binding signal (z-score),[17],-0.279
same,glycan array binding signal (z-score),[18],-0.284
same,glycan array binding signal (z-score),[19],0.817
same,glycan array binding signal (z-score),[20],-0.226
same,glycan array binding signal (z-score),[21],-0.28
same,glycan array binding signal (z-score),[22],-0.372
